# Measured values reported in PubChem BioAssay AID624417 (National Center for Advancing Translational Sciences (NCATS), 2012).
# The whole screen tested about 410,000 compounds, of which about 6,400 (1.6%) were called active. Inconclusive results, whose numbers are uncertain, are shown with a selection of clear calls. Calls come from the whole dose curve; as a rule, active = well fitted inhibition curve with a large enough effect; inconclusive = small, poorly fitted or top-dose-only effect; inactive = no such curve, though single readings can be large or run the other way. No potency is given beside an inconclusive call; the fits are too rough.
# Biological target: Glucagon-like peptide 1 receptor (Homo sapiens) (UniProt P43220)
# Sequence of UniProt P43220 (P43220 whole entry, looked up): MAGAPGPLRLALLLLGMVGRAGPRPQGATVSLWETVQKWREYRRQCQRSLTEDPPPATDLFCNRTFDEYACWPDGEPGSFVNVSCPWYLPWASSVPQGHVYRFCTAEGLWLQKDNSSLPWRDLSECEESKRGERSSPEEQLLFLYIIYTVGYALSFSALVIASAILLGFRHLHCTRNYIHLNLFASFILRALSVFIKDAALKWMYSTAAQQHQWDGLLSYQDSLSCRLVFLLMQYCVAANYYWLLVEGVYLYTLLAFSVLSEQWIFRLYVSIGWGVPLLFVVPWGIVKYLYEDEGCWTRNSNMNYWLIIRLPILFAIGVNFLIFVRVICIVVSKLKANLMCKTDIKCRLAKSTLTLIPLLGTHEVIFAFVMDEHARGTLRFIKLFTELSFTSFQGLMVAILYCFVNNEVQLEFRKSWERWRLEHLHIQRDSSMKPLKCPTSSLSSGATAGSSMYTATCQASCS
# Experiment: qHTS of GLP-1 Receptor Inverse Agonists (Inhibition Mode); note: nearly all actives have a fitted effect of over 55% in size
# Conditions: HEK293 GLP-1R CRE-luciferase, luminescence, 24 h, GLP-1R form is constitutively active; activity change, negative = inhibition: at 38.3 µM (top of the series) unless noted
# Method in brief: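 HEK293 cells stably co-expressing constitutively active GLP-1R and a cAMP-responsive luciferase reporter were seeded in DMEM with 10% Nu serum, given compounds after 12 h, and incubated 24 h at 37 deg C. Luminescence was then read.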
# % is set by controls: 0 for no effect and ±100 for the full control effect; potency is the fitted concentration of half-maximal effect; tags give direction and shape of the fitted curve.
SMILES,Potency,"activity change, negative = inhibition"
COc1ccc(N(CC(=O)Nc2ccc(C)cc2C)S(=O)(=O)c2c(C)n[nH]c2C)cc1,"inconclusive [inhibitor, single point]",
Cc1cc(Br)cn2c(Cc3cccc(F)c3)c(-c3ccc(F)cc3)nc12,"inconclusive [inhibitor, single point]",
C=CCNC(=O)c1ccccc1CCc1ccccc1,"inconclusive [inhibitor, single point]",
CCC(=O)N1CCN(c2ccc(NC(=O)COc3ccc(CC)cc3)cc2)CC1,"inconclusive [inhibitor, partial curve, poor fit]",
O=C(Nc1ccccc1)Nc1ccccc1NS(=O)(=O)c1cccs1,"inconclusive [inhibitor, single point]",
O=C1CN(C(=O)c2c(F)cccc2F)C(c2ccccc2)c2cc(Br)ccc2N1 (stereo unspecified),"inconclusive [inhibitor, partial curve, poor fit]",
Cc1cc(NC(=O)NC(=O)c2ccc(F)cc2F)n[nH]1,"inconclusive [inhibitor, partial curve, poor fit]",
CCN(CC)S(=O)(=O)c1cccc(-c2nnc(SCCOc3ccccc3)o2)c1,"inconclusive [inhibitor, single point]",
COc1ccc(/C=C/C(=O)N2CCCc3ccccc32)cc1,"inconclusive [inhibitor, partial curve]",
CCCCN(CC)CCNC(=O)c1cc2c(C)nc3ccccc3c2o1,"inconclusive [inhibitor, single point]",
CCOc1cc(/C=C/c2ccc3cccc([N+](=O)[O-])c3n2)ccc1O,inactive,
CCN(CC)S(=O)(=O)c1cc(NC(=O)Cc2ccc(S(=O)(=O)N3CCOCC3)s2)ccc1Cl,"inconclusive [inhibitor, partial curve, poor fit]",
COc1cccc(NC(=O)C2CC(=O)N/C(=N/NC(=O)c3ccc(C)cc3)S2)c1 (stereo unspecified),inactive,
COc1ccccc1OCCN1C(=O)S/C(=C\c2ccco2)C1=O,"inconclusive [inhibitor, single point]",
O=c1c2c(nc3cc(-c4cccc(Cl)c4)[nH]n13)CCCC2,"inconclusive [inhibitor, partial curve, poor fit]",
CCN(CC(=O)Nc1ccc(NC(C)=O)cc1)CC(=O)Nc1cccc(Cl)c1,inactive,
Cc1cc(/C=C2/C(=O)N(C)C(=S)N2C)c(C)n1C1CC1,inactive,
COc1ccc([N+](=O)[O-])cc1C(=O)NC1CCN(Cc2ccccc2)CC1,inactive,
Cc1ccc(C)c(NC(=O)Cn2ncc3c([nH]c4ccccc43)c2=O)c1,inactive,
CCCCC(=O)N1CCCC(c2nc(-c3cccc(OC)c3)no2)C1 (stereo unspecified),"inconclusive [inhibitor, single point]",
C/C(=N\Nc1nc(C)cc(C)n1)c1ccc(N2CCOCC2)cc1,inactive,
COC(=O)[C@@]1(Cc2ccc(F)cc2)[C@H]2c3cc(C(=O)N4CCCC4)n(Cc4ccc(Cl)c(C(F)(F)F)c4)c3C[C@H]2CN1C(=O)c1ccccc1,"inconclusive [inhibitor, partial curve, poor fit]",

SMILES,Potency,"activity change, negative = inhibition"
CCCCNC(=O)c1onc(CSc2ccccc2CC)c1C(=O)O,"inconclusive [inhibitor, single point]",
COc1ccc(CNc2ccc(Cl)cc2)cc1Cn1ccnc1,,inconclusive: -51.7% [inhibitor]
O=C(c1ccc(Cl)cc1Cl)N1CCN(c2ccccn2)CC1,inactive,
O=C(CSc1ccccc1C(=O)NCc1ccccc1)NC12CC3CC(CC(C3)C1)C2,"inconclusive [inhibitor, partial curve, poor fit]",
COC(=O)c1cc2oc(C)cc2n1Cc1cc(C)ccc1C,"inconclusive [inhibitor, single point]",
Cc1cc(-c2ccc(C(C)C)c(S(=O)(=O)N3CCOc4ccccc43)c2)on1,"inconclusive [inhibitor, single point]",
N#CC1=C(N)SC(N)=C(C#N)C1c1ccc([N+](=O)[O-])cc1,inactive,
Cc1cccc(NC(=O)CC2Nc3cccc4cccc(c34)NC2=O)c1 (stereo unspecified),"inconclusive [inhibitor, partial curve, poor fit]",
CC(=O)Nc1ccc(NC(=O)CSCc2cnn(-c3ccccc3)c2-n2cccc2)cc1,inactive,
O=C(CSc1nc2ccccc2[nH]1)N1CCN(c2ccc(F)cc2)CC1,"inconclusive [inhibitor, single point]",
CCCCCc1c(Cc2ccccc2)ncn1CCc1ccccc1OC,"inconclusive [inhibitor, single point]",
O=C(NCCCN=C1NS(=O)(=O)c2ccccc21)c1ccc(F)cc1,inactive,
Cc1[nH]c2ccccc2c1C(=O)COC(=O)c1c(-c2ccccc2)noc1C,"inconclusive [inhibitor, single point]",
COc1ccc(CCNC(=O)c2csc3c2CCCCC3)c(OC)c1,"inconclusive [inhibitor, full curve, poor fit]",
Cn1c(-c2cccs2)[n+](C)c2ccccc21,"inconclusive [inhibitor, single point]",
COc1ccc(S(=O)(=O)N2CCCC2CNC(=O)C(=O)NC2CCCCCC2)cc1 (stereo unspecified),"inconclusive [inhibitor, partial curve, poor fit]",
O=C(COC(=O)C12CC3CC(CC(C3)C1)C2)NCCCc1ccccc1,"inconclusive [inhibitor, partial curve]",
CC(=O)Nc1ccc(C(=O)N(C2=NC(C)CS2)c2ccc(Cl)cc2)cc1 (stereo unspecified),"inconclusive [inhibitor, single point]",
COc1ccccc1N(C)S(=O)(=O)c1ccc(C(=O)NNC(=O)c2ccccc2O)cc1,"inconclusive [inhibitor, single point]",
O=C(c1cc(-c2cccs2)nn1-c1ccccc1)N1CCN(S(=O)(=O)c2ccccc2)CC1,"inconclusive [inhibitor, full curve, poor fit]",
CCOc1ccc(OCC)c(NS(=O)(=O)c2c(C)[nH]c(=O)[nH]c2=O)c1,inactive,
C[C@H]1[C@@H](c2ccccc2)Oc2ccc(Cl)cc2S(=O)(=O)N1Cc1ccc(F)cc1F,"inconclusive [inhibitor, single point]",

SMILES,Potency,"activity change, negative = inhibition"
NC(=O)c1cc(-c2ccccc2)nc(N2CCOCC2)n1,"inconclusive [inhibitor, single point]",
O=C(COC(=O)c1ccc(O)cc1O)c1ccc2c(c1)OCO2,inactive,
O=C(NC(=O)c1ccccc1)Nc1ccccc1,,inconclusive: -40.8% [inhibitor]
O=C(NC(=S)Nc1ccc(Br)cn1)c1cccs1,"inconclusive [inhibitor, full curve, poor fit]",
O=C(Nc1nc2ccc(Cl)cc2s1)C1CC1,"inconclusive [inhibitor, single point]",
COc1ccc(CCNC(=O)CCC(=O)N2CC(C)Oc3ccc(Cl)cc32)cc1OC (stereo unspecified),"inconclusive [inhibitor, single point]",
CCCC(=O)N1CCC1(C)C(=O)NS(=O)(=O)c1ccc(C(C)(C)C)cc1 (stereo unspecified),inactive,
Cc1ccc(CNC(=O)c2ccc3c(c2)CCN3S(=O)(=O)c2ccccc2)cc1,inactive,
O=C(NC(NC(=S)Nc1cc(Cl)ccc1Cl)C(Cl)(Cl)Cl)c1ccco1 (stereo unspecified),"inconclusive [inhibitor, single point]",
N#CC(CCc1ccccn1)c1ccccc1 (stereo unspecified),inactive,
CCC1=C(OC(=O)N(CC)CC)N2C(=O)OC(=NCC3CC3)[C@]2(Cc2ccccc2)[C@H]2C1=CC[C@H]1C(=O)N(CC)C(=O)[C@H]12,"inconclusive [inhibitor, single point]",
CCOc1ccc(C(=O)c2ccc([N+](=O)[O-])cc2Cl)cc1,"inconclusive [inhibitor, single point]",
O/N=C/c1cn(-c2ccccc2)nc1-c1cccnc1,inactive,
O=C(NCc1ccccc1)c1ccc(CSc2ccccc2)o1,"inconclusive [inhibitor, single point]",
COc1ccc(CC2(C)OC(c3ccc([N+](=O)[O-])cc3)=NN2C(C)=O)cc1 (stereo unspecified),"inconclusive [inhibitor, partial curve, poor fit]",
Cc1ccccc1Cn1c(=N)n(CC(=O)c2ccco2)c2ccccc21,"inconclusive [inhibitor, partial curve, poor fit]",
Cc1ccc(-c2csc(NC(=O)Cc3ccc(F)cc3)n2)o1,"inconclusive [inhibitor, single point]",
Cc1ccc2c(CC(=O)Nc3cccc(C(F)(F)F)c3)coc2c1,"inconclusive [inhibitor, single point]",
Cc1cc2oc(=O)cc(CN3CCOCC3)c2c(C)c1Cl,inactive,
CCOc1ccc(S(=O)(=O)Nc2cccc(-c3ccc(N4CCCC4)nn3)c2)cc1,"inconclusive [inhibitor, single point]",
Cc1ccc(S(=O)(=O)N2CCC(Oc3cccc(C(F)(F)F)c3)CC2)cc1,"inconclusive [inhibitor, partial curve, poor fit]",
CCOC(=O)c1ccc(N2C(=O)c3[nH]nc(-c4ccc(C)cc4)c3C2c2ccc(O)cc2)cc1 (stereo unspecified),"inconclusive [inhibitor, single point]",
